Test results from patent publication US20250248396A1, “CHITOSAN ENCAPSULATION OF ABSOLUTE (ESSENTIAL) ROSEMARY, PEPPERMINT, AND COTTONSEED OILS” (priority 2024, published 2025).

Assays:
multiple insects = assay: Insecticidal activity on multiple insects; assay type: in vivo
Black Sigatoka [1] = assay: Field trials in bananas against black Sigatoka, tank mixes; assay type: in vivo, Mycosphaerella fijiensis; conditions: applied as tank mixes with tea tree oil, banana
Method: Tea tree oil was used in disclosed experiments and trials as an 53 mulsifiable concentrated formulation. For field trials in bananas, tea tree oil was applied similarly to conventional synthetic fungicides, with mineral oil, surfactants, and/or just water. The following fungicides, registered for use against black sigatoka in bananas, were tested for comparison: azoxystrobin (Bankit 25 SC), trifloxystrobin (Flint, Tega 50 WG), difenoconazole (Score, Sico 25 EC), mancozeb (43 SC Duwest 80 WP), flutriafol (Impact, 125 SC) and tridemorph (Calixin 86 OL).
Fungicides are combined in mixtures mainly: to widen the spectrum of antifungal activity and to extend its duration; to exploit the synergistic interaction between the compounds, whereby the overall activity can be increased or the amounts used can be reduced without loss of activity; and to delay or reduce the emergence of resistant strains. […] Although in principle, combinations of synthetic antifungal compounds could be used to reduce the chemical load of any particular compound applied to crops, concerns about resistance development at lower doses have militated against their use as advised by the Fungicide Resistance Action Committee (FRAC).

[2] = system: root-knot nematodes (Meloidogyne spp.); assay: Nematocidal activity on hatched root-knot nematodes in Petri dish; assay type: in vivo
Method: In some embodiments, the nematodes used in the experiments were mainly Meloidogyne spp. The below disclosed experiment results are related to the evaluation of nematocidal activity of naturally derived material.
The tomato roots infected with root-knot nematodes were washed with running water and were then cut to a size of about 1 cm, after which 50 g of the cut roots were placed in a 500 ml round-bottom flask containing 200 ml of 0.5% sodium hypochloride (NaOCI), stopped with a rubber stopper, and shaken vigorously for 3 min to sterilize the roots and at the same time burst the egg bag. Thereafter, the solution was passed through a sieve in which 200 mesh was superimposed on 500 mesh, and washed with distilled water, so the eggs of the root-knot nematodes from which the NaOCl solution was removed were recovered.
Next, the eggs of the root-knot nematodes thus recovered were surface-sterilized with 0.5% NaOCl for 10 min, washed thoroughly with sterile distilled water, placed in a phosphate buffer (1%) containing sterilized normal saline, and hatched in an incubator at 25° C.
Thereafter, each mixed solution was diluted to 2000 ppm, 2 to 3 ml thereof was poured into a Petri dish, after which 15 hatched root-knot nematodes were placed in the Petri dish, and nematocidal activity was measured and the results thereof are shown in Table 1 below.
The number of root-knot nematodes used for the experiment on the number of killed root-knot nematodes was 15 at each dilution factor.

tomato seedlings = assay: Phytotoxicity of geraniol drenching treatment on potted tomato seedlings; assay type: in vivo; conditions: for Extent of phytotoxicity (0-5) / Phytotoxicity symptom: Tomato, 50 ml drench
From the text: Sterilized soil was uniformly mixed, 300 g thereof was then placed in each pot, and tomato seedlings not infected with root-knot nematodes were transplanted thereto.

[3] = system: root-knot nematodes (Meloidogyne spp.); assay: Assessment of nematocidal activity in development of embodiments; assay type: in vivo
[4] = system: Ae. aegypti, Culex species mosquitoes, Anopheles species mosquitoes; assay: Mosquito and midge adult activity; assay type: in vivo; conditions: used at 500 to 8,000 ppm
[5] = cited from earlier work
plant = assay: Plant phytotoxicity in the nematocidal assessment; conditions: treatment with geraniol
Black Sigatoka [6] = assay: Black Sigatoka assessment in development of embodiments; conditions: general statement
[7] = all the antioxidant assay systems; cited from earlier work
[8] = 2000 ppm, 1 day, 15 nematodes per dish
[9] = 2000 ppm, 2 days, 15 nematodes per dish
[10] = 2000 ppm, 3 days, 15 nematodes per dish

## O=C1CCC[C@@H]2[C@H]3CCC[N+]4([O-])CCC[C@@H](CN12)[C@@H]34 (stereo partly drawn) [Oxymatrine]
Multiple insects; in vivo
  insecticidal activity: superior insecticidal activity was confirmed
Multiple insects; used at 500 to 6,000 ppm
  insecticidal control and plant phytotoxicity: superior insecticidal control was demonstrated without plant phytotoxicity

## CON=C(C(=O)OC)c1ccccc1CON=C(C)c1cccc(C(F)(F)F)c1 [trifloxystrobin]
Black Sigatoka [1]
  control of Black Sigatoka: effectively controlled Black Sigatoka

## Pyrethrin
[2]; 2000 ppm, 15 nematodes, observed up to 3 days
  Nematocidal efficiency (%): 73.3%
[2]; [8]
  number of killed root-knot nematodes: 5
[2]; [9]
  number of killed root-knot nematodes: 6
[2]; [10]
  number of killed root-knot nematodes: 11

## C/C=C(\C)C(=O)O[C@H]1C[C@@H](OC(C)=O)[C@@]2(C(=O)OC)CO[C@H]3[C@@H](O)[C@@](C)([C@]45O[C@@]4(C)[C@H]4C[C@@H]5O[C@@H]5OC=C[C@@]54O)[C@H]4[C@]1(CO[C@]4(O)C(=O)OC)[C@@H]32 [Azadirachtin]
[2]; [8]
  number of killed root-knot nematodes: 7
[2]; [9]
  number of killed root-knot nematodes: 8
[2]; [10]
  number of killed root-knot nematodes: 10

## CC(C)=CCC/C(C)=C/CO [Geraniol, 3,7-dimethyl-2,6-octadien-1-ol]
[2]; [8]
  number of killed root-knot nematodes: 15^a
[2]; Geraniol 2,000 ppm, 1 day, of 15
  number of killed root-knot nematodes: 15
[2]; Geraniol 10,000 ppm, 1 day, of 15
  number of killed root-knot nematodes: 15^a
Tomato seedlings; Geraniol 100 ppm, 1 week
  Extent of phytotoxicity (0-5): 0
  Phytotoxicity symptom: No
Tomato seedlings; Geraniol 200 ppm, 1 week
  Extent of phytotoxicity (0-5): 0
  Phytotoxicity symptom: No
Tomato seedlings; Geraniol 330 ppm, 1 week
  Extent of phytotoxicity (0-5): 0
  Phytotoxicity symptom: No
Tomato seedlings; Geraniol 500 ppm, 1 week
  Extent of phytotoxicity (0-5): 0
  Phytotoxicity symptom: No
Tomato seedlings; Geraniol 1,000 ppm, 1 week
  Extent of phytotoxicity (0-5): 0
  Phytotoxicity symptom: No
Tomato seedlings; Geraniol 2,000 ppm, 1 week
  Extent of phytotoxicity (0-5): 0
  Phytotoxicity symptom: No
Tomato seedlings; Geraniol 3,000 ppm, 1 week
  Extent of phytotoxicity (0-5): 0
  Phytotoxicity symptom: No
Tomato seedlings; Geraniol 4,000 ppm, 1 week
  Extent of phytotoxicity (0-5): 5
  Phytotoxicity symptom: Withered
Tomato seedlings; Geraniol 5,000 ppm, 1 week
  Extent of phytotoxicity (0-5): 5
  Phytotoxicity symptom: Withered
Tomato seedlings; Geraniol 10,000 ppm, 1 week
  Extent of phytotoxicity (0-5): 5
  Phytotoxicity symptom: Withered
Tomato seedlings; Geraniol 20,000 ppm, 1 week
  Extent of phytotoxicity (0-5): 5
  Phytotoxicity symptom: Withered
Tomato seedlings; at 4000 ppm or more
  phytotoxicity symptoms on tomato seedlings: the bottoms of the stems dried up and all tomato seedlings collapsed and withered
Tomato seedlings; concentration range of 100 ppm to 3,000 ppm
  phytotoxicity symptoms on tomato seedlings: no particular phytotoxicity symptoms
Tomato seedlings; drench, 1 week
  concentration that caused phytotoxicity in tomato seedlings: ≥ 4,000 ppm
  concentration with no effect on tomato seedlings: ≤ 3,000 ppm
[3]; geraniol alone or in combination with oxymatrine, neem extract, clove extract or Ostericum koreanum extract (b178 also Quillaja saponaria Molina)
  nematocidal activity: superior nematocidal activity was confirmed
[3]; used at 500 to 4,000 ppm
  nematocidal control and plant phytotoxicity: superior nematocidal control was demonstrated without plant phytotoxicity
[4]
  mosquito and midge control, plant phytotoxicity, water toxicology: superior mosquito and midge control was demonstrated without plant phytotoxicity or water toxicology
[5]; most common organic solvents
  solubility in organic solvents: soluble
[5]; water
  solubility in water: insoluble
plant
  concentration at which plant phytotoxicity was shown to occur: ≥ 4,500 ppm
Black Sigatoka [6]
  control of the black sigatoka fungus: effective

## O=c1c(O)c(-c2ccccc2)oc2cc(O)cc(O)c12 [Galangin]
[7]
  antioxidant activity: comparable activity with that of AEP and EEP

## CC1COC(Cn2cncn2)(c2ccc(Oc3ccc(Cl)cc3)cc2Cl)O1 (stereo not drawn) [difenoconazole]
Black Sigatoka [1]
  control of Black Sigatoka: effectively controlled Black Sigatoka

Marks after values point to notes of the source that are not given here.
